# Data as given in PubChem BioAssay AID485313 (National Center for Advancing Translational Sciences (NCATS), 2010).
# Among all 320,000 compounds or so, about 7,600 (2.4%) were called active. Inconclusive results, whose numbers are uncertain, are shown with a selection of clear calls. Calls come from the whole dose curve; as a rule, active = well fitted activation curve with a large enough effect; inconclusive = small, poorly fitted or top-dose-only effect; inactive = no such curve, though single readings can be large or run the other way. Potencies of inconclusive entries are left out as doubtful fits.
# Assay: qHTS Assay for NPC1 Promoter Activators; note: nearly all actives have a fitted effect of over 60% in size;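 for activation: reporter is driven by a mutant NPC1 promoter; % of control where 0% means no effect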
# Settings: Huh7 NPC1 promoter luciferase reporter, 24 h; series mostly up to 9.22 µM; activation: at the top concentration
# In short: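 Compounds in DMSO were transferred onto Huh7 NPC1-luciferase reporter cells pre-incubated 2 h; after 24 h at 37 °C, Amplite reagent was dispensed and luminescence recorded 10 min later.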
# Potency is the fitted concentration of half-maximal effect; tags give direction and shape of the fitted curve.
Compound,Potency,activation
CCC1CCc2sc(C(=O)NCc3ccccn3)cc2C1 (stereo not drawn),"inconclusive [activator, partial curve]",–
O=C1/C(=C/c2cccs2)CCC/C1=C\c1cccs1,active: 1.26 µM,–
Cc1nn(-c2ccc(N3CCCCC3)nn2)c(C)c1CCC(=O)Nc1ccccc1F,"inconclusive [activator, single point]",–
O=C(c1cn(-c2ccccc2)nc1-c1ccccc1)N1CCN(c2ccccn2)CC1,–,inactive: -1.36%
Cc1ccc(/C=C/C(=O)Nc2ccc(N(C)C)cc2)o1,"inconclusive [activator, single point]",–
Cc1c(Cc2ccccc2)c(=O)oc2c(C)c(OCC(=O)N3CCC(C(=O)O)CC3)ccc12,–,inactive: 0.404%
Cc1ccc2nc(NC(=O)c3ccc(OCC4CCCO4)cc3)sc2c1 (stereo not drawn),"inconclusive [activator, partial curve]",–
CN(CCC#N)C(=O)COC(=O)c1c2c(nc3ccccc13)/C(=C/c1ccco1)CC2,"inconclusive [activator, single point]",–
CC1CCOC(c2coc3ccccc3c2=O)O1 (stereo not drawn),"inconclusive [activator, partial curve]",–
CC(=O)Nc1ccc(Nc2nc(-c3cc4ccccc4oc3=O)cs2)cc1,"inconclusive [activator, single point]",–
O=c1[nH]c(COc2ccc(Cl)cc2Cl)nc2ccccc12,active: 2.51 µM,–
COC(=O)C(Cc1ccc(OC(=O)c2ccccc2Cl)cc1)N1Cc2ccccc2C1=O (stereo not drawn),"inconclusive [activator, partial curve]",–
Cc1cccc(C(=O)O/N=C2\CCCc3ccccc32)c1,"inconclusive [activator, partial curve]",–
Cc1ccc(S(=O)(=O)NCC(C)NS(=O)(=O)c2ccc(C)cc2)cc1 (stereo not drawn),–,inactive: -0.265%
CCOc1cccc(C(=O)Nc2nnc(-c3cccs3)s2)c1,"inconclusive [activator, single point]",–
Cc1cc(C)c2[nH]c(C(=O)Nc3ccc4c(c3)OCO4)cc2c1,"inconclusive [activator, partial curve]",–
CC(C)c1ccc(CNNC(=O)c2ccccc2)cc1,"inconclusive [activator, single point]",–
O=C(Nc1nccs1)c1cccc(NC(=O)C2CC2)c1,–,inactive: -0.592%
CN(Cc1ccsc1)C(=O)Cn1cc(Br)ccc1=O,"inconclusive [activator, partial curve]",–
Cc1ccc(NC(=O)C(=O)NCCCN2CCCC2=O)cc1,active: 2.24 µM,–
O=C(Nc1ccc(N2CCCCCC2)cc1)c1cccc(S(=O)(=O)N2CCOCC2)c1,–,inactive: -8.74%
CCC(C)NC(=O)CSc1ccc(S(=O)(=O)N2CCN(Cc3ccccc3)CC2)cn1 (stereo not drawn),–,inactive: -2.36%
Cc1[nH]c2ccc(C(=O)NCc3ccccn3)cc2c1C,"inconclusive [activator, single point]",–
COc1cccc(NC(=O)Nc2nc(-c3ccc(OC)c(OC)c3)cs2)c1,–,inactive: -14.8%

Compound,Potency,activation
Fc1ccccc1Nc1nc2c(s1)CCc1ccccc1-2,"inconclusive [activator, single point]",–
CCOC(=O)N1CCN(c2nc3ccc(C(=O)c4ccccc4)cc3n3cnnc23)CC1,–,inactive: -5.63%
Cn1cc([N+](=O)[O-])c(C(=O)Nc2ccc(-c3nc4ccccc4[nH]3)cc2)n1,"inconclusive [activator, partial curve]",–
O=C(Nc1cc2c(cc1Cl)OCCCO2)c1ccccc1,"inconclusive [activator, partial curve]",–
O=C(Nc1nccs1)c1ccc(-c2ccc(F)c(Cl)c2)o1,"inconclusive [activator, partial curve]",–
Cn1cc(Cl)c(C(=O)Nc2nc3ccccc3s2)n1,"inconclusive [activator, single point]",–
COc1ccc(CSc2nnc(C)s2)cc1F,"inconclusive [activator, single point]",–
O=C(Nc1nnc(C2CCCCC2)s1)c1ccco1,active: 3.98 µM,–
CCOc1ccc(/C=C2/C(=O)N(c3ccc(OC)cc3)C(=S)N2CC(=O)OC)cc1OCC,"inconclusive [activator, partial curve]",–
Cc1occc1C(=O)N/N=C/c1cccc2ccccc12,"inconclusive [activator, single point]",–
COc1ccc(S(=O)(=O)N2CCCC(C(=O)NCc3ccncc3)C2)cc1Cl (stereo not drawn),"inconclusive [activator, partial curve]",–
Cc1cc(C)c2c(N)c(C(=O)c3cccc(Cl)c3)sc2n1,–,inactive: 0.103%
CCCCN(Cc1ccccc1)c1ncnc2nc[nH]c12,"inconclusive [activator, partial curve]",–
C=CCn1c(O)c(N=NC(=O)CNC(=O)c2ccco2)c2ccccc21,–,inactive: -7.68%
Cc1ccc(-n2c(-c3cnccn3)n[nH]c2=S)c(Br)c1,–,inactive: -1.98%
CN(C)c1nc(N(C)C)nc(N2CC(=O)N(c3ccccc3)C2=N)n1,–,inactive: -1.73%
COc1ccc(NC(=O)O/N=C/c2c(C)nn(C(C)(C)C)c2C)cc1,active: 0.355 µM,–
CCN1C(=O)[C@H]2[C@@H](c3ccc(C)cc3)N3C(=O)N(c4ccc(OC)cc4)C(=O)[C@@]3(CC)[C@H]2C1=O,–,inactive: 0.346%
COc1cc2c(cc1NC(=O)CSc1ccccn1)oc1ccccc12,"inconclusive [activator, partial curve]",–
O=C(O)CCSc1nnc(COc2cccc3cccnc23)n1-c1ccccc1,–,inactive: -1.82%
c1ccc(SCc2nc(-c3ccncc3)no2)cc1,active: 3.98 µM,–
CCOc1cc(/C=C2\SC(=S)N(Nc3ccccc3)C2=O)ccc1O,"inconclusive [activator, single point]",–
COc1cc(/C=N/Nc2nncn2/N=C/c2ccc(O)c(OC)c2)ccc1O,"inconclusive [activator, single point]",–
Nn1c(SCC(=O)N2CCc3ccccc3C2)nnc1-c1cccs1,–,inactive: 0.678%
